Assay results reported in the supplement of paper PMC3334620.
In all, about 33,000 sequences were measured (“E-score (-0.5 to 0.5)”: median about -0.054, highest 2% from about 0.39 on). The list shows a part of the results.

Target: Ylr278c (UniProt Q05854)
Assay: PBM E-score (8-mer binding enrichment) (E-score (-0.5 to 0.5)); higher = stronger / more preferred TF binding; most listed sequences are background and not binding sites
Details: protein concentration: 200 nM; construct: GST-DNA-binding domain
Procedure, shortened: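 Yeast transcription factors, full-length or as DNA-binding domains, were expressed with a GST tag using PURExpress in vitro transcription/translation. At about 100-200 nM they were applied to universal all-10-mer Agilent arrays, double-stranded by primer extension on fresh or once-stripped slides. Fluorescent anti-GST detected bound protein, and masliner normalised the scans. E-scores for ungapped eight-base words, pooled with reverse complements, came from the Universal PBM Analysis Suite.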

| Sequence | PBM E-score |
| --- | --- |
| ATGATAGC | -0.0408 |
| GAAAGTCA | -0.177 |
| AAAGCCCA | 0.0171 |
| AAGAATTA | -0.054 |
| CTTATCAC | -0.245 |
| GGATGCGA | -0.134 |
| AGGAAACT | -0.152 |
| ACCCTATA | -0.189 |
| ATTCCATC | -0.0127 |
| GGCCTTAC | 0.0432 |
| CGGGCGGA | 0.405 |
| AAAGATAA | -0.0975 |
| CAGGACCG | 0.0623 |
| CTACAGGA | -0.145 |
| AAATGATC | 0.00167 |
| CGGGCTCC | 0.279 |
| GCCAATTA | -0.097 |
| ACGTTTAG | -0.29 |
| CGTGTGTC | 0.0195 |
| ATGCTTCG | 0.0134 |
| ACAGGATC | -0.214 |
| CTCACGTC | -0.0221 |
| CGGGACTA | 0.155 |
| AAAATATG | 0.0678 |

| Sequence | PBM E-score |
| --- | --- |
| GAAACGAA | 0.00018 |
| CCCAATTA | -0.00498 |
| CCACATGA | -0.138 |
| GAAGTGAC | -0.0716 |
| CGAAGGGC | 0.0868 |
| AAACGAGT | -0.0122 |
| AACGATGC | -0.233 |
| AGTTTCAA | -0.0744 |
| CTCAATGC | -0.0847 |
| ATGTTGAA | -0.0435 |
| AGCTCCTC | -0.144 |
| CCGTGCCC | 0.134 |
| TCCACGAA | -0.137 |
| CCCCACGA | -0.0978 |
| CATGAGGA | 0.0164 |
| GACATTAA | 0.0355 |
| CGACTTGC | -0.034 |
| TACAGCTA | -0.239 |
| CGTGAAAC | -0.0803 |
| ACAATGAT | -0.168 |
| GTGAGGAA | -0.0728 |
| ACGCAAAT | 0.0704 |
| GTTGCGAA | -0.0658 |
| TCGGGCAA | 0.146 |

| Sequence | PBM E-score |
| --- | --- |
| AGACAGCG | 0.0506 |
| GTCGGTAA | 0.13 |
| ATATAAAC | -0.199 |
| CGCACGGC | 0.184 |
| AGTCGGCC | 0.253 |
| GGGTTTAA | 0.0672 |
| GAGGAATC | -0.0345 |
| AATACAAC | 0.00662 |
| AATAACCA | -0.247 |
| CTTACCAC | -0.157 |
| ATGATTAC | -0.121 |
| ACATTCAG | -0.19 |
| AGCCAGTA | -0.0813 |
| AAATAAAA | -0.0105 |
| TAGATATA | 0.0126 |
| GCTTACGA | -0.215 |
| CGTCTCAA | -0.111 |
| AAAGAAAA | -0.0274 |
| GTAATAGA | -0.0615 |
| ATTCTAAC | -0.14 |
| AATTTACA | -0.257 |
| AGTATACG | -0.151 |
| CCCCTTAC | -0.195 |
| CAATAGCA | -0.0161 |

| Sequence | PBM E-score |
| --- | --- |
| ACTACGCC | -0.0396 |
| ATAACATC | -0.143 |
| ACTGGGTC | -0.146 |
| TGGCGCCA | -0.109 |
| GGAAAGAA | 0.088 |
| ATGGTATA | -0.225 |
| TGCGCCAA | -0.0175 |
| CGGGGTCA | 0.289 |
| CCTGGGAC | -0.225 |
| CCCTCCCA | 0.0446 |
| AACAAGTA | -0.225 |
| AACCTCTG | -0.166 |
| GTTCAATA | -0.00677 |
| AAGATCCA | -0.0199 |
| CTTTCTTA | -0.101 |
| CTTCCGGA | 0.451 |
| AGTACGCG | -0.0482 |
| GACTCGGC | 0.134 |
| GCGTAATA | -0.0719 |
| TATCCCCA | -0.0119 |
| GAATAGTC | -0.0932 |
| ATGGGAAA | -0.185 |
